Molecules are shown by their SMILES. Out of some 310,000 compounds screened, about 2,200 (0.71%) showed an effect of 50% or more. The effect is printed as a negative number. The list shows a part of the results.

Results on 88 compounds are retold here after publication PMC4336329 (PLoS ONE, 2015).

For this test, the target named is human ether-à-go-go-related gene (hERG) potassium channel (human, UniProt Q12809). Nature of the test: primary screen, population patch clamp on CHO cells stably expressing hERG.
Chain of human ether-à-go-go-related gene (hERG) potassium channel (Q12809 whole entry, looked up): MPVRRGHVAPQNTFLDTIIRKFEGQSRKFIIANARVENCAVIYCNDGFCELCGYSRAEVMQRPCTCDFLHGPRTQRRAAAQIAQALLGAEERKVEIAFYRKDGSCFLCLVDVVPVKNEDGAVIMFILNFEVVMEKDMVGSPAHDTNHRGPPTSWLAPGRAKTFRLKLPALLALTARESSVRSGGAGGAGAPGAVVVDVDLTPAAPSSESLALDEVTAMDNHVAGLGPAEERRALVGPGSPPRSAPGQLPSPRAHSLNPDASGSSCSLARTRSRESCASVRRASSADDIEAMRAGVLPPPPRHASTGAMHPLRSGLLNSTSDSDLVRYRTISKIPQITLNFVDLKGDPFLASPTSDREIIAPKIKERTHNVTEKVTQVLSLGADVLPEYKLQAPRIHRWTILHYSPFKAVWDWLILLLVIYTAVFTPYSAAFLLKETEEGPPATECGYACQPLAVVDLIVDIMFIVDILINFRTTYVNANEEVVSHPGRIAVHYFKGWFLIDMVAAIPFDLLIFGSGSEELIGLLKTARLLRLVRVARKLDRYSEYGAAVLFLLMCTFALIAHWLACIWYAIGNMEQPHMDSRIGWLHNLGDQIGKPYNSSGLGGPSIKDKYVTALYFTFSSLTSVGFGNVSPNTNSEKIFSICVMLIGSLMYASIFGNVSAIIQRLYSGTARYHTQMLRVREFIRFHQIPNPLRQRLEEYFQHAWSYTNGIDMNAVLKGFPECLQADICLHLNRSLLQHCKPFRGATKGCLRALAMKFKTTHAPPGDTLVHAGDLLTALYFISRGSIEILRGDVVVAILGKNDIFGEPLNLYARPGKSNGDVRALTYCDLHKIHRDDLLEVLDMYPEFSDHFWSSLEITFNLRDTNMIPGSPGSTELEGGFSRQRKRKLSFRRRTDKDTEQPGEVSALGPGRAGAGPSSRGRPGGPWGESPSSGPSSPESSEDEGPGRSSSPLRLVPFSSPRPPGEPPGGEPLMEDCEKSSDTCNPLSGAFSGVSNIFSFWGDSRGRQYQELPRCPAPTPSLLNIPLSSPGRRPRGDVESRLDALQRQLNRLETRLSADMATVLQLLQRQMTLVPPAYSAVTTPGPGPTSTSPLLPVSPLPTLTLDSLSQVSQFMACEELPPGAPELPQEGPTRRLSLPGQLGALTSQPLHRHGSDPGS
Regarding `COc1ccc(-n2nnnc2/C=C\Nc2ccccc2C(=O)c2ccccc2)cc1`, the “hERG current change (%, negative = inhibition) at 1uM” value was determined as 11.3%.
Regarding `COc1ccc(C2CC(C(F)(F)F)n3nc(CO)c(Cl)c3N2)cc1OC` (stereo not shown), the “hERG current change (%, negative = inhibition) at 1uM” value is 11.9%.
Take `COc1ccc(C(=O)Nc2cccnc2)cc1OC`: the “hERG current change (%, negative = inhibition) at 1uM” value was 17.8%.
For `CC(NC(=O)CSCc1ccccc1Br)c1ccccc1` (stereo not shown), the “hERG current change (%, negative = inhibition) at 1uM” value was 4.12%.
Regarding `CCOc1cc(C(=O)Nc2ccc(S(=O)(=O)Nc3cnc4ccccc4n3)cc2)cc(OCC)c1OCC`, the “hERG current change (%, negative = inhibition) at 1uM” value is on record as 12.2%.
On to `CC(C)(Oc1ccc(Cl)cc1)C(=O)OCn1nnc2ccccc2c1=O`, for which the “hERG current change (%, negative = inhibition) at 1uM” value is recorded as 18.2%.
Regarding `Cn1c(CNC(=O)CCNC(=O)c2cccc(Cl)c2)cc(=O)n(C)c1=O`, the “hERG current change (%, negative = inhibition) at 1uM” value was found to be 10.3%.
Under `CN1C(C)(C)CCCC1(C)C.O=C(O)C(O)C(O)C(=O)O` stands 15.2%.
For the compound `CCCN(CCC)C(=O)Cn1c(=O)c2sccc2n2c(=S)sc(-c3ccccc3)c12`, the “hERG current change (%, negative = inhibition) at 1uM” value is reported as 8.57%.
Under `CCc1ccc(C(=O)Nc2ccc(OC)c(S(=O)(=O)N3CCOCC3)c2)cc1` stands -3.08%; under `CCS(=O)(=O)N1Cc2ccccc2CC1C(=O)Nc1ccc(F)c(F)c1F` (stereo not shown), 9.21%; under `C/C(O)=C(\C#N)C(=O)Nc1cc(Br)ccc1Br`, 17%.
With `Nc1nc2n(n1)C(c1ccco1)CC(c1ccc(Cl)cc1)N2` (stereo not shown), the “hERG current change (%, negative = inhibition) at 1uM” value is -0.238%.
In the case of `Cc1ccccc1CN(C)C(=O)[C@H](Cc1ccccc1)NC(=O)c1ccco1`, the “hERG current change (%, negative = inhibition) at 1uM” value came to 8.99%.
Under `Cc1ccc(Nc2nc(N)c([N+](=O)[O-])c(N3CCC(C)CC3)n2)cc1C` stands 4.62%.
Consider `CC1CN(C(=O)CN2C(=O)NC3(CCCCCC3)C2=O)CC(C)O1` (stereo not shown), for which the “hERG current change (%, negative = inhibition) at 1uM” value turned out to be 10.7%.
With `COc1ccccc1[C@@]1(C)ON(c2ccccc2C(F)(F)F)C1=O`, the “hERG current change (%, negative = inhibition) at 1uM” value came out at 10%.
Under `CCN(CC)Cc1c(C(=O)OC(C)C)nnn1-c1nonc1N` stands 10.7%.
For the compound `CCC(C)(C)NC(=S)Nc1ccc(-c2nc3ccc(C)cc3s2)cc1`, the “hERG current change (%, negative = inhibition) at 1uM” value was found to be 13.2%.
Take `O=c1c(N2CCCCC2)coc2ccccc12`: the “hERG current change (%, negative = inhibition) at 1uM” value was 14.2%.
Turning to `CC(=O)c1cccc(NC(=O)c2ccc(NC(=O)CCS(=O)(=O)c3cccs3)cc2)c1`, the “hERG current change (%, negative = inhibition) at 1uM” value is 16.4%.
Turning to `Cc1ccc(S(=O)(=O)N2CCC3(CC2)OCCO3)s1`, the “hERG current change (%, negative = inhibition) at 1uM” value is on record as 13.9%.
Turning to `CCCCC1CCC(C(=O)N(C)CC(=O)Nc2cccc(F)c2)CC1` (stereo not shown), the “hERG current change (%, negative = inhibition) at 1uM” value turned out to be 14.6%.
Turning to `COC(=O)C1=Nc2ccccc2/C1=C\c1c(O)n(-c2ccc(OC)cc2)c(=O)[nH]c1=O`, the “hERG current change (%, negative = inhibition) at 1uM” value was 4.75%.
As to `Cc1csc2ncc(C(=O)NCc3ccc4c(c3)OCO4)c(=O)n12`, the “hERG current change (%, negative = inhibition) at 1uM” value is reported as 8.03%.
Under `CCn1ncc(Br)c1C(=O)Nc1ccc(C(C)C)cc1` stands 11.1%; under `CC(Oc1ccc2ccc(=O)oc2c1)C(=O)NC(Cc1c[nH]c2ccc(O)cc12)C(=O)O` (stereo not shown), 9.61%; under `O=C(Nc1cccc(Cl)c1N1CCOCC1)c1cccs1`, 5.11%.
Under `Cc1cc(C)cc(NC(=O)C(OC(=O)C2=COCCO2)c2ccccc2)c1` (stereo not shown) stands 6.62%; under `O=C(CSc1nnc2ccc(-c3ccccn3)nn12)Nc1ccccc1F`, 23.4%.
In the case of `O=C(CCS(=O)(=O)Cc1ccccc1)N1CCc2ccccc2C1`, the “hERG current change (%, negative = inhibition) at 1uM” value is 8.69%.
On to `O=C(CCC(=O)Nc1ccccc1Cl)NN=C1CCCC1`, for which the “hERG current change (%, negative = inhibition) at 1uM” value came to 11.7%.
For the compound `COc1cccc(NC(=O)COC(=O)Cc2ccc(Br)cc2)c1`, the “hERG current change (%, negative = inhibition) at 1uM” value amounted to 11.8%.
Under `COC(=O)C1=C(C)NC(=O)NC1c1ccc(-c2ccc(F)cc2)o1` (stereo not shown) stands 12.9%; under `CCN=C1SC(CC(=O)NC(C)c2ccccc2)C(=O)N1CC` (stereo not shown), 4.49%; under `CCN(CC)S(=O)(=O)c1ccc(C(=O)Nc2cc(C)cc(C)c2)cc1`, 13%.
Under `CCOC(=O)C[C@H]1c2ccccc2S(=O)(=O)N1c1cccc(OC)c1` stands 8.07%; under `COC(=O)c1ccc(NC(=O)C23CC4CC(C2)CC(n2cnc(Cl)n2)(C4)C3)cc1`, 12.6%; under `CCCN1CCN(S(=O)(=O)c2ccc3c(c2)NC(=O)C(C)S3)CC1` (stereo not shown), 6.81%.
Under `Cc1ccc(NS(=O)(=O)c2ccc3c(c2)NC(=O)C(C)C(=O)N3)c(Cl)c1` (stereo not shown) stands 4.38%.
Turning to `CCOc1ccccc1OCc1nn2c(COc3ccccc3)nnc2s1`, the “hERG current change (%, negative = inhibition) at 1uM” value is reported as -0.449%.
As to `CC(C)(C)C1CCc2c(C(=O)NNC(=O)/C=C/C(=O)O)csc2C1` (stereo not shown), the “hERG current change (%, negative = inhibition) at 1uM” value is 14.8%.
Turning to `CCCn1cc(SCC(=O)NCc2ccc3c(c2)OCO3)c2ccccc21`, the “hERG current change (%, negative = inhibition) at 1uM” value is 10.4%.
For `CC/C(C)=N/NC(=O)c1[nH]c2ccc(C)cc2c1-c1ccccc1`, the “hERG current change (%, negative = inhibition) at 1uM” value is recorded as -1.75%.
Under `COc1ccc2cc(C(=O)N(C)CC(=O)Nc3ccccc3Br)ccc2c1` stands 4.14%; under `Cc1cccc(C(=O)Nc2ccccc2-c2nnn(CC(=O)Nc3ccc4c(c3)OCCO4)n2)c1`, 12.2%.
In the case of `Cc1cc(NC(=O)CSc2nnc(COc3cccc(C)c3C)n2Cc2ccco2)no1`, the “hERG current change (%, negative = inhibition) at 1uM” value was 2.63%.
Regarding `CC1CCN(C(=O)Cn2cc(S(=O)(=O)CC(=O)N3CCOCC3)c3ccccc32)CC1`, the “hERG current change (%, negative = inhibition) at 1uM” value was 6.8%.
As to `CCN(CC)CCN=C(C)c1c(O)n(-c2ccccc2OC)c(=O)[nH]c1=O`, the “hERG current change (%, negative = inhibition) at 1uM” value was found to be 5.94%.
Regarding `NC(=O)c1sc(-c2ccsc2)cc1NS(=O)(=O)c1ccc(C(F)(F)F)cc1`, the “hERG current change (%, negative = inhibition) at 1uM” value is reported as 12.5%.
Regarding `O=C(NCCC1CCCCN1S(=O)(=O)c1cccs1)C(=O)Nc1ccc(F)cc1F` (stereo not shown), the “hERG current change (%, negative = inhibition) at 1uM” value worked out at 13%.
Under `O=C(N/N=C/c1cccc(NC(=O)c2ccc(Cl)cc2)c1)c1cccc(O)c1` stands 10.9%.
For the compound `O=C(NCCc1ccccn1)c1ccc2nc(Cc3ccccc3F)oc2c1`, the “hERG current change (%, negative = inhibition) at 1uM” value is listed as -4.32%.
Under `CSc1ncc(CN2CCc3c([nH]c4ccccc34)C2c2cccc(O)c2)cn1` (stereo not shown) stands 10.4%.
As to `CSC1=C(C#N)C(c2ccccc2Cl)C2=C(N1)c1ccccc1C2=O` (stereo not shown), the “hERG current change (%, negative = inhibition) at 1uM” value is recorded as 17.2%.
Under `O=C(Cc1cccs1)Nc1ccc2c(c1)C(=O)OC2` stands 11.4%; under `CC(=O)NC(=S)Nc1ccc([N+](=O)[O-])cc1C`, -3.41%.
In the case of `Cc1oc(C)c2c(=O)ccc3c(c12)OC(N)=C(C#N)C3c1ccc(F)cc1` (stereo not shown), the “hERG current change (%, negative = inhibition) at 1uM” value was -6.81%.
In the case of `Cc1cccc(C)c1NC(=O)COC(=O)CN1C(=O)C2CCCCC2C1=O` (stereo not shown), the “hERG current change (%, negative = inhibition) at 1uM” value came to 2.37%.
With `COc1ccc(/C=C(\C#N)C(=O)OCC(=O)NC2CC2)cc1`, the “hERG current change (%, negative = inhibition) at 1uM” value turned out to be 3.16%.
Under `Cn1nc([N+](=O)[O-])c(C(C#N)c2ccccn2)c(Cl)c1=O` (stereo not shown) stands 9.21%.
For `Cn1c(=NC(=O)CS(=O)(=O)c2ccccc2)sc2cc([N+](=O)[O-])ccc21`, the “hERG current change (%, negative = inhibition) at 1uM” value is given as -5.77%.
Take `Cc1c(N=Cc2c(O)n(Cc3ccc(F)cc3)c(=O)[nH]c2=O)c(=O)n(-c2ccccc2)n1C`: the “hERG current change (%, negative = inhibition) at 1uM” value is reported as 3.44%.
For `COCCNc1nnc(SC(C)C(=O)Nc2ccc(-c3nc4ccc(C)cc4s3)cc2)s1` (stereo not shown), the “hERG current change (%, negative = inhibition) at 1uM” value was 16.3%.
Under `Cc1ccc(S(=O)(=O)NCCN2CCOCC2)cc1` stands 2.88%; under `COc1ccc(C(=O)COC(=O)c2ccc3ccccc3n2)cc1`, 0.823%.
Under `O=C(NNC(=O)c1ccccc1[N+](=O)[O-])c1cnccn1` stands -1.79%.
Under `O=C(CC(=O)Nc1cccc(Cl)c1)N/N=C\c1ccccc1` stands 2.14%; under `COc1ccccc1NC(=O)C1CC(C)OC1=O` (stereo not shown), 11.8%.
As to `CCn1c(CSc2nc3ccccc3s2)nnc1SCC(=O)c1ccc2c(c1)OCCO2`, the “hERG current change (%, negative = inhibition) at 1uM” value was -1.35%.
Regarding `CCN(Cc1ccccc1)S(=O)(=O)c1c(N)n(C)c(=O)n(C)c1=O`, the “hERG current change (%, negative = inhibition) at 1uM” value was -0.624%.
`COc1ccc(/C=C2\SC(=S)N(CC(=O)NCCO)C2=O)cc1`: the “hERG current change (%, negative = inhibition) at 1uM” value is given as 17%.
For the compound `O=c1oc2ccccc2c(Nc2cccc3cccnc23)c1[N+](=O)[O-]`, the “hERG current change (%, negative = inhibition) at 1uM” value is 13%.
Regarding `Cc1oc(-c2ccc(Cl)cc2)nc1CN1CCC(C(=O)NCC2CCCO2)CC1` (stereo not shown), the “hERG current change (%, negative = inhibition) at 1uM” value is given as -28.4%.
Turning to `CC1CCCC(C)N1CC(O)Cn1c2ccccc2c2ccccc21` (stereo not shown), the “hERG current change (%, negative = inhibition) at 1uM” value worked out at 2.9%.
With `Cc1ccc(CNS(=O)(=O)c2c(N)n(C)c(=O)n(C)c2=O)cc1`, the “hERG current change (%, negative = inhibition) at 1uM” value is given as 11.2%.
With `CC(C)CCNS(=O)(=O)c1cc2c3c(c1)CCN3C(=O)CC2`, the “hERG current change (%, negative = inhibition) at 1uM” value was found to be 8.65%.
Regarding `O=C(CSc1nnc(CNC(=O)c2cccs2)o1)NCCc1ccccc1`, the “hERG current change (%, negative = inhibition) at 1uM” value amounted to 2.78%.
Take `CCc1ccc(/C=C2\SC(=S)N(CCC(=O)NC3=NCCS3)C2=O)cc1`: the “hERG current change (%, negative = inhibition) at 1uM” value is given as 17.2%.
In the case of `O=C(c1ccc2nc[nH]c2c1)N1CCc2ccccc2C1`, the “hERG current change (%, negative = inhibition) at 1uM” value came out at 6.36%.
On to `CS(=O)(=O)N(CC(=O)NCCc1ccccc1)C1CCCCC1`, for which the “hERG current change (%, negative = inhibition) at 1uM” value was -4.18%.
Turning to `CC1=C(C(=O)N2CCc3ccccc32)C2(CCC(C)CC2)OC1=O` (stereo not shown), the “hERG current change (%, negative = inhibition) at 1uM” value was determined as 1.66%.
As to `O=C(Nc1ccc2c(c1)CCC2)Nc1ccc(F)cc1F`, the “hERG current change (%, negative = inhibition) at 1uM” value was 10.5%.
Under `CC(C)c1ccccc1NC(=O)COC(=O)Cc1c[nH]c2ccccc12` stands 15.8%.
With `O=C(NC1CC1)C1=C[C@H](C2CCCCC2)C[C@H](OCCCCO)O1`, the “hERG current change (%, negative = inhibition) at 1uM” value is 11.7%.
As to `CSc1ccc(NS(=O)(=O)c2ccc(-n3cnnn3)cc2)cc1`, the “hERG current change (%, negative = inhibition) at 1uM” value turned out to be 11.2%.
For `O=C(CS(=O)(=O)c1ccccc1)NCc1ccc(Cl)cc1`, the “hERG current change (%, negative = inhibition) at 1uM” value turned out to be 11%.
Consider `NC(=O)c1ccccc1OCC(=O)NC12CC3CC(CC(C3)C1)C2`, for which the “hERG current change (%, negative = inhibition) at 1uM” value was found to be 11.1%.
